Measured values: PubChem BioAssay (NCATS)
This list was built around the results that the source calls inconclusive (neither active nor inactive); the mix of calls is not that of the screen. For some assays here: Potencies beside an inconclusive call are fits to weak or partial responses and may not hold up. The source made the active and inactive calls. Unless noted, calls come from the whole dose curve; as a rule, active = well fitted curve in the direction sought with a large enough effect; inconclusive = small, poorly fitted or top-dose-only effect, or another doubt; inactive = no such curve, though single readings can be large; an effect the other way counts as inactive or inconclusive.

Legend:
[1] = biological target: Ubiquitin carboxyl-terminal hydrolase 1 (Homo sapiens) (UniProt O94782); experiment: Inhibitors of USP1/UAF1: Pilot qHTS (AID 504865); settings: purified USP1/UAF1, Ub-rhodamine cleavage fluorescence; series mostly up to 114 µM;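 note: rhodamine fluorescence freed from ubiquitin-rhodamine substrate followed over time; potency is the fitted concentration of half-maximal effect; nearly all actives have a fitted effect of over 35% in size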
Procedure, shortened: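 USP1/UAF1 complex (1nM) preincubated with compound 15 min at room temperature, then Ub-Rho substrate (150nM final) added. Fluorescence read kinetically at 480/540 nm, 6 reads every 60 seconds. Buffer: 50mM HEPES pH 7.8, 0.5mM EDTA, 0.1 mg/ml BSA, 1mM TCEP, 0.01% Tween-20.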

[2] = biological target: Luciferin 4-monooxygenase (Photinus pyralis) (UniProt P08659); experiment: Biochemical firefly luciferase enzyme assay for NPC (AID 624030);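 note: purified P. pyralis luciferase at 10 nM with luciferin and ATP substrate; nearly all actives have a fitted effect of over 70% in size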; settings: purified P. pyralis luciferase, luminescence, 5 min; series mostly up to 58.6 µM
Procedure, shortened: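 Purified P. pyralis luciferase at 10 nM in 50 mM Tris Acetate (final), luminescence read within 5 minutes of enzyme addition to compounds. Activity normalised to PTC124 versus DMSO; concentration-response curves classed by r2, magnitude and activity.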

[3] = qHTS of pediatric cancer cell lines to identify multiple opportunities for drug repurposing: Confirmatory screen for NB1643 cells (AID 1347109); settings: NB1643 neuroblastoma cell viability; series mostly up to 45.9 µM; note: potency is the fitted concentration of half-maximal effect; nearly all actives have a fitted effect of over 45% in size
Procedure, shortened: (§1)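 Viability after 48 h compound treatment at 37C, 500-1,000 cells/well, read as ATP luminescence with CellTiter-Glo. Primary screens used 11-point (MIPE, 0.78 nM-46 µM) or 8-point (NPC, 0.59 nM-46 µM) final concentrations; follow-up screens used 11-point dilutions.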

[4] = qHTS of pediatric cancer cell lines to identify multiple opportunities for drug repurposing: Confirmatory screen for RD cells (AID 1347124); settings: RD rhabdomyosarcoma cell viability; series mostly up to 45.9 µM;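 note: potency is the fitted concentration of half-maximal effect; cells exposed to compound for 48 h before viability readout; nearly all actives have a fitted effect of over 65% in size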
Procedure, shortened: as §1

[5] = qHTS of pediatric cancer cell lines to identify multiple opportunities for drug repurposing: Confirmatory screen for Rh30 cells (AID 1347126); settings: Rh30 rhabdomyosarcoma cell viability; series mostly up to 45.9 µM; note: potency is the fitted concentration of half-maximal effect; nearly all actives have a fitted effect of over 55% in size
Procedure, shortened: as §1

[6] = Quantitative High-Throughput drug screen in 47 multiple myeloma cell lines against the NCATS MIPE library collection: AMO1_DSMZ cell viability assay (AID 1918927; note: potency is the fitted concentration of half-maximal effect; nearly all actives have a fitted effect of over 30% in size); settings: AMO1 myeloma cells viability, CellTiter-Glo ATP luminescence, 48 h; viability, % of DMSO: at 45.8 µM (top of the series)
Procedure, shortened: (§2)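 Relative luminescence from CellTiter-Glo served as the viability signal, referenced to DMSO-treated (100%) and cell-free medium (0%) controls. Treatment lasted 48 hours at 37C with 500 cells per well.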

[7] = Quantitative High-Throughput drug screen in 47 multiple myeloma cell lines against the NCATS MIPE library collection: KMM1_JCRB cell viability assay (AID 1918960); settings: KMM1 myeloma viability, CellTiter-Glo ATP luminescence, 48 h; series mostly up to 45.8 µM; note: potency is the fitted concentration of half-maximal effect; nearly all actives have a fitted effect of over 30% in size
Procedure, shortened: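 ATP readout (CellTiter-Glo), 48 h drug incubation, 37 °C/5% CO2, 500 cells per well; normalisation to DMSO (100%) and media-only (0%) controls.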

[8] = Quantitative High-Throughput drug screen in 47 multiple myeloma cell lines against the NCATS MIPE library collection: KMS34_JCRB cell viability assay (AID 1918985); settings: KMS34 myeloma viability, CellTiter-Glo ATP luminescence, 48 h; series mostly up to 45.8 µM; note: potency is the fitted concentration of half-maximal effect; nearly all actives have a fitted effect of over 40% in size
Procedure, shortened: (§3)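 500 cells/well per myeloma line exposed to pinned MIPE 4.0 compounds for 48 h at 37 °C, 5% CO2. Viability read as ATP by CellTiter-Glo luminescence, normalised to DMSO-only (100%) and media-only (0%) wells.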

[9] = qHTS for identification of novel therapeutic agents for treatment of microphthalmiaassociated transcription factor (MiT) renal cell carcinoma (RCC) (AID 1963991; calls by dose curve; note: potency is the fitted concentration of half-maximal effect); settings: TFE3-RCC UOK109 viability, CellTiter-Glo, 48 h; active = Z-AUC below -0.8 in all three lines
Procedure, shortened: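 Curves over 11 concentrations were fitted to CellTiter-Glo luminescence, scaled between empty wells (0%) and DMSO (100%) viability. Cells were UOK109, UOK124 and UOK145 TFE3-fusion RCC lines at 500/well, exposed 48 hours at 37 C.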

[10] = Quantitative High-Throughput drug screen in 47 multiple myeloma cell lines against the NCATS MIPE library collection: FR4_PLB cell viability assay (AID 1918924; note: nearly all actives have a fitted effect of over 35% in size); settings: FR4_PLB myeloma cells viability, CellTiter-Glo ATP, 48 h; series mostly up to 45.8 µM
Procedure, shortened: (§4)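 Myeloma cell lines, 500 cells per well, exposed to MIPE 4.0 library compounds for 48 h at 37C, 5% CO2. Viability from ATP by CellTiter-Glo luminescence; normalised to DMSO (100%) and media-only (0%) wells.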

[11] = Quantitative High-Throughput drug screen in 47 multiple myeloma cell lines against the NCATS MIPE library collection: JIM1_ECACC cell viability assay (AID 1918964); settings: JIM1 myeloma viability, CellTiter-Glo ATP luminescence, 48 h; series mostly up to 45.8 µM
Procedure, shortened: as §2

[12] = Quantitative High-Throughput drug screen in 47 multiple myeloma cell lines against the NCATS MIPE library collection: JJN3_DSMZ cell viability assay (AID 1918966; note: nearly all actives have a fitted effect of over 50% in size); settings: JJN3 myeloma cells viability, CellTiter-Glo ATP, 48 h; viability, % of DMSO: at 45.8 µM (top of the series)
Procedure, shortened: as §2

[13] = Quantitative High-Throughput drug screen in 47 multiple myeloma cell lines against the NCATS MIPE library collection: Karpas25_ECACC cell viability assay (AID 1918968; note: nearly all actives have a fitted effect of over 35% in size); settings: Karpas25 myeloma viability, CellTiter-Glo ATP, 48 h; series mostly up to 45.8 µM
Procedure, shortened: as §2

[14] = Quantitative High-Throughput drug screen in 47 multiple myeloma cell lines against the NCATS MIPE library collection: KMS27_JCRB cell viability assay (AID 1918970); settings: KMS27 myeloma cells, CellTiter-Glo ATP viability, 48 h; series mostly up to 45.8 µM; note: nearly all actives have a fitted effect of over 30% in size
Procedure, shortened: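 Myeloma cells (500 per well) were exposed to MIPE 4.0 compounds for 48 h at 37 °C, 5% CO2; viability was read as ATP luminescence with CellTiter-Glo, normalized to DMSO-only (100%) and media-only (0%) wells.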

[15] = Quantitative High-Throughput drug screen in 47 multiple myeloma cell lines against the NCATS MIPE library collection: KMS12PE_JCRB cell viability assay (AID 1918972); settings: KMS12PE myeloma viability, CellTiter-Glo ATP, 48 h; series mostly up to 45.8 µM; note: nearly all actives have a fitted effect of over 30% in size
Procedure, shortened: as §4

[16] = Quantitative High-Throughput drug screen in 47 multiple myeloma cell lines against the NCATS MIPE library collection: OCIMY1_PLB cell viability assay (AID 1918979); settings: OCI-MY1 myeloma viability, CellTiter-Glo ATP, 48 h; series mostly up to 45.8 µM; note: nearly all actives have a fitted effect of over 35% in size
Procedure, shortened: as §3

[17] = Quantitative High-Throughput drug screen in 47 multiple myeloma cell lines against the NCATS MIPE library collection: MM1S_ATCC cell viability assay (AID 1918980); settings: MM1S myeloma viability, CellTiter-Glo ATP luminescence, 48 h; series mostly up to 45.8 µM; note: nearly all actives have a fitted effect of over 45% in size
Procedure, shortened: as §3

[18] = Quantitative High-Throughput drug screen in 47 multiple myeloma cell lines against the NCATS MIPE library collection: L363_DSMZ cell viability assay (AID 1918984); settings: L363 myeloma viability, CellTiter-Glo ATP luminescence, 48 h; series mostly up to 45.8 µM; note: nearly all actives have a fitted effect of over 40% in size
Procedure, shortened: as §3

[19] = Quantitative High-Throughput drug screen in 47 multiple myeloma cell lines against the NCATS MIPE library collection: OPM1_PLB cell viability assay (AID 1918989); settings: CellTiter-Glo, 48 h; series mostly up to 45.8 µM; note: nearly all actives have a fitted effect of over 40% in size
Procedure, shortened: as §3

WaGa = experiment: qHTS assay to identify novel small-molecules to repurpose for Merkel cell carcinoma treatment (AID 1296009); settings: MCC and control cell lines, CellTiter-Glo viability, 72 h; series mostly up to 46 µM; note: nearly all actives have a fitted effect of over 60% in size
Procedure, shortened: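 Cells were treated for 72 hr at 37 degree celsius with compounds in 8- or 11-point dose response. Viability was read by CellTiter-Glo luminescence, normalized to no-cell (cytotoxicity) and DMSO controls.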

Measured: Potency
Tags give direction and shape of the fitted curve.

UniProt P08659, sequence (P08659 whole entry, looked up): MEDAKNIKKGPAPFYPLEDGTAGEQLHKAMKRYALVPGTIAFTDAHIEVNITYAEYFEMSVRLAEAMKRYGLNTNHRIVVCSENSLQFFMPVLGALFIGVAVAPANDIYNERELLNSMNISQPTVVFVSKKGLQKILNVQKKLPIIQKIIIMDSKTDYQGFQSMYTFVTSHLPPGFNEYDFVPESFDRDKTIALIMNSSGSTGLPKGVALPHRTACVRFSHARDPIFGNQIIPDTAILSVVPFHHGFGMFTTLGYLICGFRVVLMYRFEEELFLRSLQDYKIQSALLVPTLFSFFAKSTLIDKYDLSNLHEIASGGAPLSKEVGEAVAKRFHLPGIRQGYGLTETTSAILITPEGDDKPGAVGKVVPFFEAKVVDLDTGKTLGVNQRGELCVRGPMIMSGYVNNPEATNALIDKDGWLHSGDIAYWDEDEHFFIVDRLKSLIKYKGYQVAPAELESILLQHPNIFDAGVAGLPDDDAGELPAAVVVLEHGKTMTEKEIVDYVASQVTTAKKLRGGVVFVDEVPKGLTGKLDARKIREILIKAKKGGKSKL
UniProt O94782, sequence (O94782 whole entry, looked up): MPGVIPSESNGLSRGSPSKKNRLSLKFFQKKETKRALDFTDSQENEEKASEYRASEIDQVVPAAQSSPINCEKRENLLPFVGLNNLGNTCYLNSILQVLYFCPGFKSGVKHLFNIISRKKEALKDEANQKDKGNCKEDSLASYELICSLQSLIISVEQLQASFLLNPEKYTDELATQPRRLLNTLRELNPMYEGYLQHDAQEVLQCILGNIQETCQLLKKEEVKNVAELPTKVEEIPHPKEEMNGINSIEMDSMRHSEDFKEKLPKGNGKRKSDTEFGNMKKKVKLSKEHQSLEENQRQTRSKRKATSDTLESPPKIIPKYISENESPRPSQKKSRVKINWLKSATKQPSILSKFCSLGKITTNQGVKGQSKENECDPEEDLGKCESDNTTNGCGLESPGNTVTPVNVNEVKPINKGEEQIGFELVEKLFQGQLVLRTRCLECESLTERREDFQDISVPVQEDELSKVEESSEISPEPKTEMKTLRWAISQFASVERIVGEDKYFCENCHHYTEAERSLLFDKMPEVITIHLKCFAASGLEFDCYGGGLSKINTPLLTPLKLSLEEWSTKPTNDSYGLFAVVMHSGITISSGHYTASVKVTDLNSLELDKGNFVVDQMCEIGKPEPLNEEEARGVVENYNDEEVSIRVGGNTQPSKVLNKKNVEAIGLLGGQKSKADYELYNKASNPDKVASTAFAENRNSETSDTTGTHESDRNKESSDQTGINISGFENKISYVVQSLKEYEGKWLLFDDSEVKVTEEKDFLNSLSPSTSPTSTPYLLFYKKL

C#C[C@]1(O)CC[C@H]2[C@@H]3CCC4=CC(=O)CC[C@@H]4[C@H]3CC[C@@]21CC
inconclusive: [1] 89100 nM [inhibitor, partial curve, poor fit]

CCNC(=O)NCCCOc1cccc(CN2CCCCC2)c1
inactive: [2]

COc1cc([C@@H]2c3cc4c(cc3[C@@H](O[C@@H]3O[C@@H]5CO[C@@H](c6cccs6)O[C@@H]5[C@H](O)[C@@H]3O)[C@H]3COC(=O)[C@H]23)OCO4)cc(OC)c1O
inconclusive: [3] 414 nM [cytotoxic, full curve, poor fit] | [4] 3690 nM [cytotoxic, partial curve, poor fit] | [9] 18700 nM [falling, partial curve]
active: [5] 1310 nM | [6] 590 nM | [7] 743 nM | [8] 1870 nM

C[C@@H]1CC[C@@]2(OC1)OC1CC3C4CC=C5CC(O)CCC5(C)C4CCC3(C)C1[C@@H]2C (stereo not given in full)
inactive: [10] | [11] | [12] | [13] | [14] | [15] | [16] | [17] | [18] | [19] | WaGa
